Experimental data from the supplement of paper PMC10369915.
This is one part of the list. Cut-off read from the data, not from the text of the source: active = 3.2 or more and inactive = the rest. The signal is at background level for most entries.

B1: GPX2_Y125 (peptide)
chain: KDKLPYPYDDP
B2: GNAS_Y339_K338N (peptide)
chain: VTRANYFIRDE
B3: GRIA3_Y451_R450Q_YF (peptide)
chain: EGNEQYEGFCV
B4: GRIN2A_Y1224_T1223S (peptide)
chain: SNMPSYSGHFT
B5: GRAP_Y101 (peptide)
chain: SVSVNYGDQVQ
B6: GPI_Y351_R347H (peptide)
chain: HHFAAYFQQGD
B7: GPR143_Y177 (peptide)
chain: GAAMLYYPSVS
B8: GNB3_Y85_V81M (peptide)
chain: IMWDSYTTNKV
B9: GLRA1_Y307_Y307C (peptide)
chain: LPKVSCVKAID
B10: GLI3_Y104 (peptide)
chain: EPSVPYRGTVF
B11: GPI_Y17_H20P (peptide)
chain: KLQQWYREPRS
B12: GPC3_Y299_W296R (peptide)
chain: KYRREYILSLE
B13: GREB1L_Y1560 (peptide)
chain: PLYRKYWPNHI
B14: GLYATL2_Y127 (peptide)
chain: SVQVDYMKTIL
B15: GLI3_Y933 (peptide)
chain: RLKAKYAAATG
B16: GPAA1_Y49_A54N (peptide)
chain: LTQRTYMSENN
B17: GREB1L_Y1063_R1066P (peptide)
chain: LIDSSYLTPTA
B18: GLUD1_Y512 (peptide)
chain: HSGLAYTMERS
B19: GNS_Y416_G418E (peptide)
chain: DVLVEYQEEGR
B20: GNS_Y416 (peptide)
chain: DVLVEYQGEGR
B21: GNE_Y197 (peptide)
chain: AKNKDYMSIIR
B22: GLB1_Y57_R59H (peptide)
chain: SGSIHYSHVPR
B23: GPR143_Y231_G229V (peptide)
chain: GRQVIYTENER
B24: GRHL3_Y518 (peptide)
chain: QRVLLYVRRET
B25: GPR143_Y231_E235K (peptide)
chain: GRQGIYTENKR
B26: GLB1_Y57_R59C (peptide)
chain: SGSIHYSCVPR
B27: GRIA4_Y695 (peptide)
chain: EKMWTYMRSAE
B28: GNB1_Y85 (peptide)
chain: IIWDSYTTNKV
B29: GPI_Y351 (peptide)
chain: HRFAAYFQQGD
B30: GLUD1_Y512_H507Y_YF (peptide)
chain: FSGLAYTMERS
B31: GRIN2A_Y1423 (peptide)
chain: GHNDVYISEHV
B32: GLB1_Y57 (peptide)
chain: SGSIHYSRVPR
B33: GPAA1_Y49 (peptide)
chain: LTQRTYMSENA
B34: GNB1_Y111 (peptide)
chain: APSGNYVACGG
B35: GRIN2A_Y1246_D1251N (peptide)
chain: RMGNLYDIDEN
B36: GPC3_Y299_W296R_YF (peptide)
chain: KFRREYILSLE
B37: GLRA1_Y307 (peptide)
chain: LPKVSYVKAID

molecular target: SHP2 C-SH2 domain E139D; assay: enrichment score (SH2-bound / input frequency) (ratio); bacterial display of known human phosphotyrosine sites (pTyr-Var adds point mutants) read by sequencing; higher = stronger binding; tyrosines were phosphorylated by kinases first; conditions: peptide library: pTyr-Var
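Note: displayed peptides selected on beads carrying the immobilized SH2 domain, with library peptides lacking any tyrosine serving as negative controls.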

Enrichment score, inactive:
B1 0.562, B2 0.843, B3 0.563, B4 0.816, B5 0.649, B6 1.89, B7 1.05, B8 1.72, B9 1.99, B10 0.608, B11 0.471, B12 0.392, B13 1.15, B14 0.996, B15 0.448, B16 1.25, B17 0.759, B18 0.843, B19 0.618, B20 0.716, B21 0.896, B22 1.07, B23 0.647, B24 0.254, B25 0.694, B26 0.624, B27 1.19, B28 1.18, B29 1.92, B30 1.04, B31 0.913, B32 0.514, B33 0.857, B34 0.52, B35 1.07, B36 0.576, B37 0.941

molecular target: SHP2 C-SH2 domain wild-type; assay: as above; conditions: peptide library: pTyr-Var

Enrichment score, inactive:
B1 0.57, B2 0.923, B3 0.494, B4 0.658, B5 0.733, B6 1.81, B7 0.834, B8 1.36, B9 1.15, B10 0.532, B11 0.519, B12 0.275, B13 0.735, B14 0.782, B15 0.274, B16 0.831, B17 1.2, B18 0.837, B19 0.498, B20 0.715, B21 0.786, B22 1.27, B23 0.759, B24 0.306, B25 0.66, B26 0.866, B27 0.87, B28 1.45, B29 1.74, B30 0.991, B31 0.682, B32 0.409, B33 0.768, B34 0.714, B35 1.41, B36 0.398, B37 0.792

molecular target: SHP2 N-SH2 domain L43F; assay: as above; conditions: peptide library: pTyr-Var

Enrichment score, inactive:
B1 0.651, B2 0.994, B3 0.69, B4 0.678, B5 0.758, B6 2.19, B7 1.03, B8 1.28, B9 1.38, B10 0.682, B11 0.486, B12 0.35, B13 0.943, B14 0.915, B15 0.453, B16 0.742, B17 1.3, B18 0.91, B19 0.588, B20 0.715, B21 0.799, B22 1.11, B23 0.629, B24 0.177, B25 0.678, B26 0.576, B27 0.879, B28 1.16, B29 2.1, B30 0.922, B31 1.05, B32 0.386, B33 0.668, B34 0.669, B35 1.34, B36 0.324, B37 0.904

molecular target: SHP2 N-SH2 domain T42A; assay: as above; conditions: peptide library: pTyr-Var

Enrichment score, inactive:
B1 0.581, B2 0.705, B3 0.486, B4 0.825, B5 0.747, B6 2.19, B7 0.815, B8 1.31, B9 1.4, B10 0.546, B11 0.339, B12 0.302, B13 0.792, B14 1.19, B15 0.583, B16 0.982, B17 1.27, B18 0.771, B19 0.562, B20 0.599, B21 0.572, B22 0.986, B23 0.682, B24 0.118, B25 0.458, B26 0.585, B27 0.992, B28 1.4, B29 1.61, B30 0.918, B31 0.618, B32 0.365, B33 0.782, B34 0.577, B35 1.05, B36 0.55, B37 0.864

molecular target: SHP2 N-SH2 domain T52S; assay: as above; conditions: peptide library: pTyr-Var

Enrichment score, inactive:
B1 0.626, B2 0.639, B3 0.587, B4 0.803, B5 1.02, B6 1.96, B7 1.03, B8 1.48, B9 1.49, B10 0.634, B11 0.609, B12 0.36, B13 1.13, B14 1.02, B15 0.461, B16 1.02, B17 1.2, B18 0.763, B19 0.548, B20 0.758, B21 0.777, B22 1.04, B23 0.614, B24 0.209, B25 0.574, B26 0.657, B27 1.02, B28 1.3, B29 1.56, B30 0.78, B31 0.725, B32 0.411, B33 0.791, B34 0.607, B35 0.797, B36 0.476, B37 0.863

molecular target: SHP2 N-SH2 domain wild-type; assay: as above; conditions: peptide library: pTyr-Var

Enrichment score, inactive:
B1 0.709, B2 1.09, B3 0.692, B4 0.815, B5 0.995, B6 1.82, B7 1.16, B8 1.72, B9 1.05, B10 0.636, B11 0.478, B12 0.364, B13 0.967, B14 0.908, B15 0.5, B16 0.804, B17 1.18, B18 0.909, B19 0.73, B20 0.776, B21 1.05, B22 1.1, B23 0.759, B24 0.192, B25 0.597, B26 1.07, B27 1.01, B28 1.2, B29 1.85, B30 1.01, B31 0.921, B32 0.31, B33 0.71, B34 0.742, B35 1.5, B36 0.393, B37 0.988
